# Source: the supplement of paper PMC9334596
# Values joined by “and” are separate entries in the source; they are usually repeats but may differ in a detail not shown here. Identical values can stand only once. Over roughly 5,300 compounds, “PER2::LUC luminescence relative to vehicle control” has its median near 0.96; the highest 2% begin near 1.3. Some of the results follow.
# Tested on: mPer2Luc MEF
# Assay: PER2::LUC luminescence relative to vehicle control (fold of vehicle); higher = higher PER2::LUC reporter signal
# Details: 10 µM
# Method in brief: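 Compounds from commercial libraries were added at 10 μM to 384-well plates seeded 48 h earlier with ~3000 mPer2Luc mouse embryonic fibroblasts per well. The cells were kept in DMEM with 10% FBS at 37 °C and 5% CO2. Luminescence was read with ONE-Glo 24 h and 30 h after treatment, then an alamarBlue viability assay was run. Values are PER2::LUC luminescence relative to vehicle control, as fold change.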
Structure (SMILES),PER2::LUC luminescence (time after treatment 24 h),PER2::LUC luminescence (time after treatment 30 h)
CC(C)(O)c1ccccc1Cc1ccccc1,0.709,1.18
COc1ccc(C2CNC(=O)C2)cc1OC1CCCC1 (stereo not given),0.93,0.868
O=c1c(O)c(-c2ccc(O)cc2O)oc2cc(O)cc(O)c12,0.955,0.963
CC[N+]1(C)C2CCC1CC(OC(=O)C1CCC(C(=O)OC3CC4CCC(C3)[N+]4(C)CC)(c3ccccc3)c3ccccc31)C2 (stereo not given),0.898,0.961
CC(/C=C/c1cccc(Oc2ccc(F)cc2)c1)N(O)C(N)=O (stereo not given),1.16,0.926
OC[C@H]1O[C@@H](Oc2cc(O)cc(/C=C/c3ccc(O)cc3)c2)[C@H](O)[C@@H](O)[C@@H]1O,1.22,1.07
CO/N=C(\C(=O)N[C@@H]1C(=O)N2C(C(=O)[O-])=C(C[n+]3ccc(N)n3CCO)CS[C@H]12)c1csc(N)n1,1.12,1.1
CCOC(=O)[C@H](CCc1ccccc1)N[C@H]1CS[C@H](c2cccs2)CN(CC(=O)O)C1=O,1.15,1.18
NC(=O)c1ccc([N+](=O)[O-])cc1Cl,0.912 and 0.987,1.06 and 0.911
O=C1OCCN1/N=C/c1ccc([N+](=O)[O-])o1,1.03,1.23
O=C(/C=C/C(=O)Oc1ccccc1C(=O)O)Oc1ccccc1C(=O)O,1.02,0.893
Oc1ccc([C@@H]2CNCc3sccc32)cc1O,0.871,0.847
CN(C)N(C)C(=O)[C@@]1(Cc2ccccc2)CCCN(C(=O)[C@@H](Cc2c[nH]c3ccccc23)NC(=O)C(C)(C)N)C1,1,0.972
CCOC(=O)Oc1c(OC)cc(C(=O)O[C@@H]2C[C@@H]3CN4CCc5c([nH]c6cc(OC)ccc56)[C@H]4C[C@@H]3[C@H](C(=O)OC)[C@H]2OC)cc1OC,1.03,1.07
Cc1c(O)c(=O)ccn1C,1 and 1.13,0.859 and 1.1
CC(C)C[C@H](NP(=O)(O)O[C@H]1O[C@H](C)[C@@H](O)[C@H](O)[C@@H]1O)C(=O)N[C@@H](Cc1c[nH]c2ccccc12)C(=O)O,1.03,1.1
O=S(=O)(O)c1cc(O)ccc1O,1.05,1.01
Cc1ccc([N+](=O)[O-])cc1S(=O)(=O)N(C)C,0.523,0.788
O=C1C[C@@H](c2ccc(O)cc2)Oc2cc(O)cc(O)c21,1.46,1.25
CCC(=O)O[C@]1(C(=O)CCl)[C@@H](C)C[C@H]2[C@@H]3CCC4=CC(=O)C=C[C@]4(C)[C@@]3(F)[C@@H](O)C[C@@]21C,0.711,1.08
c1ccc([C@H]2CN3CCSC3=N2)cc1,0.959,0.727
N[C@@H](CCCP(=O)(O)O)C(=O)O,1.02,1.04
COc1cc2c(Oc3ccc4[nH]c(C)cc4c3F)ncnc2cc1OCCCN1CCCC1,0.109,0.081
C[C@H]1CNCCCN1S(=O)(=O)c1cccc2cncc(F)c12,0.787,0.723
O=C(O)c1cc(-c2ccccc2)nc2ccccc12,0.91,1.12
N[C@@H](Cc1ccccc1)C(=O)O,0.855,0.872
CC(=O)O[C@]1(C(C)=O)CC[C@H]2[C@@H]3C[C@H](C)C4=CC(=O)CC[C@]4(C)[C@H]3CC[C@@]21C,0.862 and 0.706,1.06 and 1.03

Structure (SMILES),PER2::LUC luminescence (time after treatment 24 h),PER2::LUC luminescence (time after treatment 30 h)
CC(C)NCC(O)c1ccc2ccccc2c1 (stereo not given),1.11 and 0.911 and 0.893,0.959 and 0.86 and 0.832
CC(C)(C)c1nc2c3cc[nH]c(=O)c3c3cc(F)ccc3c2[nH]1,0.802,0.906
Nc1nc2c(nc(Br)n2C2OC3COP(=O)(O)O[C@@H]3C2O)c(=O)[nH]1 (stereo not given in full),0.859,0.943
N[C@H](C(=O)O)[C@H](O)c1ccc(O)c(O)c1,0.879,0.966
CC(=O)O[C@@H]1C[C@@]23C[C@@]24CC[C@H](O[C@@H]2OC[C@@H](O)[C@H](O)[C@H]2O)C(C)(C)[C@@H]4CC[C@H]3[C@]2(C)C[C@@H]3O[C@]4(C[C@@H](C)[C@@H]3[C@@]12C)O[C@H](O)[C@@]1(C)O[C@@H]41,0.888,0.982
CN(C)c1nc(N(C)C)nc(N(C)C)n1,1.05,1
COc1cc2c(cc1-c1c(C)noc1C)ncc1[nH]c(=O)n([C@H](C)c3ccccn3)c12,0.115 and 0.124,0.147 and 0.112
CCCCCCCCCCCCCCCCCC(=O)OC(CC(=O)O)C[N+](C)(C)C (racemic),0.909,0.786
O=C1c2ccc(Nc3ccc(F)cc3F)cc2CCc2ccc(OC[C@H](O)CO)cc21,0.669,0.939
CCCNCC(O)COc1ccccc1C(=O)CCc1ccccc1 (stereo not given),0.74 and 0.541,0.72 and 0.75
NC(=O)C(c1ccccc1)(c1ccccc1)[C@@H]1CCN(CCc2ccc3c(c2)CCO3)C1,0.757,0.849
COc1cc([C@@H]2c3cc4c(cc3[C@@H](O[C@@H]3O[C@@H]5CO[C@@H](C)O[C@H]5[C@H](O)[C@H]3O)[C@H]3COC(=O)[C@H]23)OCO4)cc(OC)c1O,0.658,0.601
COc1ccccc1OCC(O)CN1CCN(CC(=O)Nc2c(C)cccc2C)CC1 (stereo not given),0.76 and 0.89,0.855 and 0.722
O=[N+]([O-])c1cccc2cn[nH]c12,0.997,0.936
O=C(Nc1ccccc1)Nc1ccccc1,1.57,1.44
CN(C)C(=S)NN=C(c1ccccn1)c1ccccn1,1.09,1.04
CNS(=O)(=O)C[C@H]1CC[C@H](N(C)c2[nH]cnc3nccc2-3)CC1,0.907,0.797
COc1cc(/C=C(\C#N)C(=O)Nc2nnc(C(F)(F)F)s2)ccc1OCc1ccc(C(F)(F)F)cc1C(F)(F)F,0.149,0.165
CNC(=S)NCCSCc1[nH]cnc1C,1.06,1.06
C[C@H]1C[C@@H]2[C@H]([C@@H](O)C[C@@]3(C)[C@H]2CC[C@]3(O)C(=O)CO)[C@@]2(C)C=CC(=O)C=C12,0.729,1.16
O=C(O)c1cc(C(=O)O)c(C(=O)N(Cc2cccc(Oc3ccccc3)c2)[C@H]2CCCc3ccccc32)cc1C(=O)O,1.06 and 0.623,0.885 and 0.626
CCOc1c2c(c(OCC)c3ccccc13)C(=O)N(c1ccc(CC(=O)NS(=O)(=O)c3ccccc3)cc1)C2,0.997,1.02
CNCC(O)c1ccc(OC(=O)C(C)(C)C)c(OC(=O)C(C)(C)C)c1 (stereo not given),0.854,1.16
COc1ccc([C@]2(C#N)CC[C@@H](C(=O)O)CC2)cc1OC1CCCC1,0.83,0.929
CCN(CC)CCc1nc(-c2ccccc2)no1,0.833 and 1.1,0.938 and 1.04
Nc1ncnc2c1c(-c1ccc(Oc3ccccc3)cc1)cn2C1CCCC1,0.889,0.797
O=C(NCCO)c1cccc(-c2cc(Nc3ccc(OC(F)(F)F)cc3)ncn2)c1,1.03,1.02

Structure (SMILES),PER2::LUC luminescence (time after treatment 24 h),PER2::LUC luminescence (time after treatment 30 h)
C/C=C(/C)C(=O)O[C@H]1CC(C)=CC(=O)[C@@]2(C)CC[C@@](O)(C(C)C)[C@H]12,1.01,0.988
CCc1cn([C@H]2C[C@H](O)[C@@H](CO)O2)c(=O)[nH]c1=O,0.962 and 0.859,0.942 and 0.798
CC(C)NC[C@@H](O)COc1cccc2ccccc12,0.942 and 0.869,0.975 and 0.894
C[C@H](CCC(=O)NCC(=O)NCCS(=O)(=O)O)[C@H]1CC[C@H]2[C@@H]3[C@H](O)C[C@@H]4C[C@H](O)CC[C@]4(C)[C@H]3C[C@H](O)[C@]12C,0.886,0.904
O=S(=O)(O)NC1CCCCC1,0.919,1.05
C[n+]1ccc(C=Cc2ccc3ccccc3c2)cc1,0.908,1.07
C[C@@H]1O[C@@H](O[C@H]2[C@H](Oc3cc(O)c4c(=O)cc(-c5ccc(O)cc5)oc4c3)O[C@H](CO)[C@@H](O)[C@@H]2O)[C@H](O)[C@H](O)[C@H]1O,0.841,0.85
COc1cc2c(c(OC)c1OC)-c1ccc(OC)c(=O)cc1[C@@H](NC=O)CC2,0.938,0.84
CCNC(=O)NS(=O)(=O)c1sc(CC(C)C)cc1-c1ccc(Cn2c(-c3ccccc3)nc(OC)c2C=O)cc1,0.994,0.997
Nc1nc2ccc(Cl)cc2c2nc(-c3ccco3)nn12,1.08 and 0.859 and 0.779,1.04 and 0.977 and 0.99
CCC(C)N(C)C(=O)c1cc2ccccc2c(-c2ccccc2Cl)n1 (stereo not given),0.976,0.86
C[C@@H]1CCN(C(=O)CC#N)C[C@@H]1N(C)c1ncnc2[nH]ccc12,1.22 and 1.07,1.2 and 1.23
CN(C)[C@@H]1C(O)=C(C(=O)NCN2CCCC2)C(=O)[C@@]2(O)C(O)=C3C(=O)c4c(O)cccc4[C@@](C)(O)[C@H]3C[C@@H]12,1,0.908
O=S(=O)([O-])NC1CCCCC1.[Na+],0.938,1.02
Cc1c(N(C)CS(=O)(=O)O)c(=O)n(-c2ccccc2)n1C,0.551,0.918
CCOC(=O)Nc1cc(-c2ccc(C)c(NS(C)(=O)=O)c2)nn2c(C)nnc12,0.132,0.135
COc1cc2c3cc1Oc1c(OC)c(OC)cc4c1[C@@H](Cc1ccc(O)c(c1)Oc1ccc(cc1)C[C@@H]3N(C)CC2)N(C)CC4,0.716,0.772
CC(NCCC(c1ccccc1)c1ccccc1)c1ccccc1 (stereo not given),0.552,0.689
O=c1[nH]c(=O)n(C2CCCO2)cc1F (stereo not given),1.33,1
Cc1cc2c(F)c(Oc3ncnn4cc(OC[C@@H](C)OC(=O)[C@H](C)N)c(C)c34)ccc2[nH]1,0.73,0.734
Nc1ncnc2c1c(I)cn2[C@@H]1C[C@H](N)[C@@H](O)[C@H]1O,0.874,0.966
CN1CCN(c2c(F)cc3c(=O)c(C(=O)O)cn(CCF)c3c2F)CC1,1.1,0.943
C[N+](C)(C)CC[N+]1(C)Cc2c(Cl)c(Cl)c(Cl)c(Cl)c2C1,0.91,0.954
C[C@H](CCC(=O)O)[C@H]1CC[C@H]2[C@@H]3[C@H](O)C[C@@H]4C[C@H](O)CC[C@]4(C)[C@H]3CC[C@]12C,0.871 and 0.894,0.984 and 0.895
NCC(O)CC(=O)O (stereo not given),1.23 and 1.06,1.56 and 0.991
NCCOCCOCCNC(=O)Cc1ccc(Nc2nc(NCc3ccc(F)cc3)nc(NCC3CCCCC3)n2)cc1,1.09,1.03
